# In article PMC12136788:
# The list shows a part of the results.
# B1: chr14:71723713:71723820:+|CDS|ENSG00000197555|unk|total|mutant (ssRNA)
# RNA: GGGAGUUCUACAGUCCGACGAUCGCUGCCCCCUCACAGCUCGCACCAUCCUUCUCCUCCUCUUCCUCCUCCUCCUCUGGUCCCCGGAGUUUUUACCCUCGCCAGGGCGCUACCCGCAAGUACCUGAUUGGAUGGAAAAAACCCCAACAGAGGAUUGAGCAUCA
# B2: ENSG00000198589:be:win_8451|CDS_3pUTR|ENSG00000198589|bound_else_gene|NA|bound_elsewhere_windowed (ssRNA)
# RNA: GGGAGUUCUACAGUCCGACGAUCGCUGUCUUACGACCAGAGGUGCAUCAUUUCUGGCAUGGCUUCAGGAAGCAUUGUGCUAUUUUACAACGACUUUAACCGGUGGCAUCAUGAAUACCAAACCCGCUACUGAUGGUGACAGCUCAACAGAGGAUUGAGCAUCA
# B3: chr16:21843385:21843581:-|three_prime_utr|ENSG00000185864|control|control|control (ssRNA)
# RNA: GGGAGUUCUACAGUCCGACGAUCGGAAAUAAAAUUGUCCUGAAAGACGUCAUUACUCUACGGAGACAUGUGGAAACAAAAGUUAGAGCUAAAAUCCGUAAGAGGAAGGUGACAACGAAAAUCAACCAUCAUGACAAAAUCAAUCAACAGAGGAUUGAGCAUCA
# B4: chr11:108106880:108106981:+|3pUTR|ENSG00000166266|msi1|total|mutant (ssRNA)
# RNA: GGGAGUUCUACAGUCCGACGAUCUCCGUGGUAUGGCAAUAAGACACUUCAGAGGCUAUCUUAACCUCUGAAUACCCAUCUUCCCGUUUAAAGACAGAGACAUCCCAUCUGGAAAAUGUUAACUUGUGUUGCCAUCUCGUUGCCCAACAGAGGAUUGAGCAUCA
# B5: chr2:73700624:73701305:-|CDS|ENSG00000204872|control|control|control (ssRNA)
# RNA: GGGAGUUCUACAGUCCGACGAUCACCGUGGUCAGGGGAUAGCAAAAGCCCUGGUCAGGACUGUCCUCCAGUUUGCCCGGGACUAGGGCUACAGUGAAGUUGUCCUGGACACCAGCAACAUCCAGCUCUCUGCCAUGGGCCUCUCAACAGAGGAUUGAGCAUCA
# B6: chr11:35231809:35232301:+|3pUTR|ENSG00000026508|msi1|total|mutant (ssRNA)
# RNA: GGGAGUUCUACAGUCCGACGAUCACAACACCAAGAAUUGAUUUUGCCGCCAACAUUCAUUCAAUACUGUUAUAUCAGAGGAGCCGGAGAGAGGAAACAUUUGACUUAUCUGGAAAAGCAAAAUGUACUUAAGAAUAAGAAUAACAACAGAGGAUUGAGCAUCA
# B7: chr14:70725707:70725808:-|3pUTR|ENSG00000006432|unk|total|mutant (ssRNA)
# RNA: GGGAGUUCUACAGUCCGACGAUCGUCGAAUAUCAGCUAUUUCAUAUGGUUCACCCUAAUGUACCUGCCUCUCUCUUUGGCUUCCGGUCUGAGAAUGACUUGUCUUUGUCAAGGUAUACUAUUGUCCGAAACGCAUUACCAAAUCAACAGAGGAUUGAGCAUCA
# B8: chr19:6380113:6380214:-|3pUTR|ENSG00000125651|msi1|total|mutant (ssRNA)
# RNA: GGGAGUUCUACAGUCCGACGAUCACUUCAGGCUCUCAGUGACCCUUCGACAUCCUGCUUGCUCCCUGACUCCCAGGGCCCCGCCGUCCGCAAUUCUGGAAAAGUUAAGCCAUCUCCUCCUCUGGCCCUUCCUUCUGGAAUCUUCAACAGAGGAUUGAGCAUCA
# B9: chr7:139079551:139079652:-|CDS|ENSG00000105939|unk|total|mutant (ssRNA)
# RNA: GGGAGUUCUACAGUCCGACGAUCAAUGCUGAUGGAGUGGCCACAGAUAUAACUUCUACCAGAUCCUUAAAUUACAAAAGCACCCGCAGCGGUCACAGAGAAAUAUCAUCACCCCGGAUUCAGGAUGCUGGACCUGCUUCCCGACAACAGAGGAUUGAGCAUCA
# B10: chr2:9585027:9585123:-|3pUTR|ENSG00000134308|msi1_unk|FALSE|overlapping (ssRNA)
# RNA: GGGAGUUCUACAGUCCGACGAUCGGAAAACUUCAUUCCUUGAUUUGUGUUUGUCUUGGCCUUCCUGGUGUGCAGUACUGCUGUAGAAAAGUAUUAAUAGCUUCAUUUCAUAUAAACAUAAGUAACUCCCAAACACUUAUGUAGCAACAGAGGAUUGAGCAUCA
# B11: chr4:108667705:108667793:+|3pUTR|ENSG00000198856|msi1_unk|total|mutant (ssRNA)
# RNA: GGGAGUUCUACAGUCCGACGAUCUCUGGACAGUUGAUCAGCUUUACCUAUGGUGCUUUGCCUUUAACCCGAGUGUGUGAUGGCCGAUUAUUUCAGAUAUGUAUGUAAAACUGUUUCCUGAACAAUAAGAUGUAUGAACGGAGCCAACAGAGGAUUGAGCAUCA
# B12: chr9:132694550:132694651:+|3pUTR|ENSG00000125484|unk|FALSE|bound_elsewhere (ssRNA)
# RNA: GGGAGUUCUACAGUCCGACGAUCUUCCUGAAGAUUACAUAUCAGUGUCCUGCGUUUUUAUCUAAUAUUAGAGCUGAGGUUCCUAGGAAAAUUUUGAAGUGGGGAAGAUUAUGGAGAAAAUGAAAUGGAAAUUUGGGGAGGGUGCAACAGAGGAUUGAGCAUCA
# B13: chr16:66721972:66722075:-|3pUTR|ENSG00000135720|unk|total|mutant (ssRNA)
# RNA: GGGAGUUCUACAGUCCGACGAUCUUUUUAAUUCAGUUUUUUAAAAAAACAAAUGUAUUGUGGCUUCCAGUUACCAGGUUGUCCCGGUAAUGACAGUAAACUGACUGCCGAAUGAUAAUUGUGGUACCGUGACCAACCGAUGCCCAACAGAGGAUUGAGCAUCA
# B14: chr20:63196482:63196583:-|3pUTR|ENSG00000149658|msi1|FALSE|unique (ssRNA)
# RNA: GGGAGUUCUACAGUCCGACGAUCUGAUUUUUGCCCAGAUGGAUCUGCAUUUAUUUGUACUUUUUCUAUGUAUUAUAAUCCUGUAGAAGUCACUAAUAAAGGAGUAUUUUUUUUGUCAGCUUAUCAAUCAGACUGAUCUAAUGUCAACAGAGGAUUGAGCAUCA
# B15: chr1:86745841:86745942:+|3pUTR|ENSG00000097033|msi1|total|mutant (ssRNA)
# RNA: GGGAGUUCUACAGUCCGACGAUCAUGGUGCAGUUCAGAAUUGUUUAAAUAAGCUCUGUGCCACUGAGCUUAAUCUGAAAGUACCGUGACAUGUGAAGGAUGCACAUAUGAAUGAAAAACUAAAAUAAUUGCCGGCUCUUCUAUCAACAGAGGAUUGAGCAUCA
# B16: chr15:58597255:58597356:-|3pUTR|ENSG00000137845|unk|total|mutant (ssRNA)
# RNA: GGGAGUUCUACAGUCCGACGAUCUGGAAAAGGAACCCAAUUUUCUUAUGAACAGAUAUUUUUAACUUAAUGGCACAAAGUCUCCGAAUAUUAUUAUGUGCCCCGUGUUCCCUGUUCUUCGUUGCUGCAUUUUCUUCACUUGCACAACAGAGGAUUGAGCAUCA
# B17: ENSG00000100350:stop:overlap|stop_codon|ENSG00000100350|stop_codon|NA|stop_codon (ssRNA)
# RNA: GGGAGUUCUACAGUCCGACGAUCGGCGACCAAGAGCCACUAGGUUCCCCCCUGGCUCCAGGGCCUCUGGCUCAGUCCGUCGAUAGCAACAAAGAGGAGCUCUGACUGUCCCUUCCUAAGCUGUGGGCACAGUGGCCAGGCCUCCAACAGAGGAUUGAGCAUCA
# B18: chr2:200815332:200815484:+|CDS|ENSG00000082153|unk|total|mutant (ssRNA)
# RNA: GGGAGUUCUACAGUCCGACGAUCUCAGUUUCAAGACUGUAUUAUUCAAGGCUUAACUGAAACCGGUACUGAUUUGGAAGCAGCCGCUAAGUUUCUUGAUGCUUCUGGAGCAAAACUUGAUUACCGUCGAUAUGCAGAAACACUCAACAGAGGAUUGAGCAUCA
# B19: chr1:45660322:45660423:-|5pUTR|ENSG00000159592|unk|total|mutant (ssRNA)
# RNA: GGGAGUUCUACAGUCCGACGAUCUCCCCUUCCCCCCUUCCCCUUUUCCCCUUUCCCCUUUUGGAAACGUGUCAGGAACCAAACCGUUUAAGAUGAGCAGUUGAGGGGACUGAGAGAGUGAUCGACACAGAACCUGGCUUCUUCCAACAGAGGAUUGAGCAUCA
# B20: chr3:149369464:149369565:-|3pUTR|ENSG00000169908|msi1_unk|total|mutant (ssRNA)
# RNA: GGGAGUUCUACAGUCCGACGAUCAAAUAACAUUCCAAUCACUAUUGUAUAUAUGUGCAUGUAUUUUUUAAAUUAAAGAUGUCCCGUUGCUUUUUAUAAGACCAAGAAGGAGAAAAUCCGACAACCUGGAAAGAUUUUUGUUUUCAACAGAGGAUUGAGCAUCA
# B21: chr1:92387783:92387894:+|3pUTR|ENSG00000122484|unk|FALSE|unique (ssRNA)
# RNA: GGGAGUUCUACAGUCCGACGAUCGGGAGCUUAGUGGGCAAGGAGGUAGGGAUAUAAUUUCUCUUCUUGGCUCCACCAGUAAUUAGCUCUGUGGCCCAGUCACCUAAACUUUCUGGACUUCAGUUCAGGUUGUAUGGCAGUAGGCAACAGAGGAUUGAGCAUCA
# B22: chr11:61866962:61867357:+|3pUTR|ENSG00000134824|msi1|FALSE|unique (ssRNA)
# RNA: GGGAGUUCUACAGUCCGACGAUCAGAUUCAGGGGAAGGGCAGGCACCAACAACUCAGAAUGGGGGCUUUCGGGGAGGGCGCCUAGUCCCCCCAGCUCUAAGCAGCCAGGAGGGACCUGCAUCUAAGCAUCUGGGUUGCCAUGGCAACAGAGGAUUGAGCAUCA
# Target: T1, UNK ZnF1-6 (called full-length) (human, UniProt Q9C0B0 30-357)
# T1 sequence: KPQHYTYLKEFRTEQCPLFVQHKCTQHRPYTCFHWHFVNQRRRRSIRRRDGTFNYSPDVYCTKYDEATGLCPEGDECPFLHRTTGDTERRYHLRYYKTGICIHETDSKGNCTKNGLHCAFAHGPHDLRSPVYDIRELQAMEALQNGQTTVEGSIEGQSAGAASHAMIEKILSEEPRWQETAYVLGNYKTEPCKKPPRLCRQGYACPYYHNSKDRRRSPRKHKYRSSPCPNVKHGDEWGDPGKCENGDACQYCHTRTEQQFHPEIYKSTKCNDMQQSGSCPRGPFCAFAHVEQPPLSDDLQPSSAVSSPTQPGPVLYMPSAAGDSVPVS
# Experiment: nsRBNS (natural sequence RNA bind-n-seq); RBNS binding buffer (assumed for nsRBNS): 25 mM Tris pH 7.5, 150 mM KCl, 3 mM MgCl2, 0.01% Triton X-100, 500 ug/ml BSA, 20 U/ml SUPERase-In, 4 C; UNK is unkempt and MSI1 is Musashi-1; names of the RNAs are library labels; protein concentration not given here; high values mean tight binding
row,Binder,binding signal [enrichment R]
1,B1,0.929
2,B2,0.416
3,B3,0.231
4,B4,0.365
5,B5,0.788
6,B6,0.502
7,B7,0.463
8,B8,0.783
9,B9,0.623
10,B10,1.24
11,B11,0.465
12,B12,1.38
13,B13,0.37
14,B14,0.612
15,B15,0.293
16,B16,0.802
17,B17,0.741
18,B18,0.255
19,B19,0.581
20,B20,0.91
21,B21,0.832
22,B22,0.948
